Measurements as given in PubChem BioAssay AID1956 (SRMLSC, 2009).
The other results are listed elsewhere or left out. Shown are side measurements of this screen, not its main read-out; they come without a call.

Experiment: compounds boosting herpes simplex virus growth – fold increase, host cell viability (AID 1956); note: tested in PC3 cells
Settings: HSV replication augmentation in cells; fold increase: measured here: primary screen fold increase 10 uM, at 10 µM, stronger effect = higher value; viability: measured here: host cell viability series, at 25 µM, stronger effect = lower value
In the case of `COc1cc(/C=C2\Oc3cc(O)ccc3C2=O)ccc1O`, the fold increase is reported as 4.8 and the viability is reported as 101%. Molecule `C/C(=C\C=C(C#N)C#N)c1cc(C#N)c(N)o1` has a fold increase of 2.5 and a viability of 92.5%. For `COc1cc(/C=C(/C#N)c2nc3ccccc3c(=O)[nH]2)ccc1O`, the fold increase was 2.82 and the viability was 99.5%. `COc1cc(/C=C2/NC(=O)N(Cc3ccccc3F)C2=O)cc(OC)c1O` gave a fold increase of 1.49 and a viability of 98.5%. With `Cc1cc(C(=O)C(=O)N(C)C)c(C)n1-c1ccc([N+](=O)[O-])cc1` the fold increase was 1.36 and the viability was 93.1%. `COc1cccc(-c2nc(-c3ccc4c(c3)-c3ccccc3S4(=O)=O)c(-c3ccccc3)[nH]2)c1OC` showed a fold increase of 1.18. With `CC1CC(C)CN(C(=O)CSc2nnc(-c3ccc(Cl)cc3)o2)C1` (stereo not drawn) the fold increase was 1.42 and the viability was 103%. Molecule `CC1(C)SC(=S)N(c2ccccc2)C1/[N+]([O-])=C/c1cccc([N+](=O)[O-])c1` (stereo not drawn) has a fold increase of 1.32. `O=C(CN(c1ccc2c(c1)OCCO2)S(=O)(=O)c1ccccc1)Nc1ccc2c(c1)OCO2` gave a fold increase of 1.35 and a viability of 86.9%. In the case of `CC(C)(C)C(=O)/C=c1\s/c(=C\c2ccc(-c3ccc([N+](=O)[O-])cc3)o2)c(=O)n1CC(=O)NC(N)=O`, the fold increase is reported as 4.74. In the case of `Cc1ccc(-c2nn3c(C)nnc3s2)cc1NC(=O)COc1ccc(Cl)cc1`, the fold increase is reported as 1.36 and the viability is reported as 101%. `COc1ccc(C(=O)/C=C/c2ccc(N(C)C)cc2)c(OC)c1` gave a fold increase of 8.06 and a viability of 56.4%. With `COC(=O)c1cccc(NC(=O)C(C)(C)C)c1` the fold increase was 1.38 and the viability was 96.9%. With `O=C(Nc1cccc(NC(=O)N2CCN(c3ccccc3)CC2)c1)N1CCN(c2ccccc2)CC1` the fold increase was 1.13. For `Cc1ccc(-c2nc(N)sc2CC(=O)OCC(=O)NC2CCCC(C)C2C)cc1` (stereo not drawn), the fold increase was 1.48 and the viability was 102%. In the case of `Cc1ccc(CSc2nnc(Cn3c(=O)sc4ccccc43)n2C)cc1`, the fold increase is reported as 1.43 and the viability is reported as 97.8%. For `Cc1ccc(CNC(=O)C2CCN(S(=O)(=O)c3ccc4c(c3)OCCCO4)CC2)cc1`, the fold increase was 1.38 and the viability was 90.3%. Work on `Cc1ccc(-c2nnn(CC(=O)N(Cc3ccco3)C(C(=O)NC3CCCC3)c3cccs3)n2)o1` (stereo not drawn) yielded a fold increase of 1.28. With `COc1cc(/C=C/C(=O)c2ccc(NS(=O)(=O)c3ccc(C)cc3)cc2)cc(OC)c1O` the fold increase was 5.17 and the viability was 44%. For `O=C(N/N=C/c1sc(N2CCOCC2)nc1-c1ccccc1)c1cccc(S(=O)(=O)N2CCOCC2)c1`, the fold increase was 1.66 and the viability was 22.5%. Molecule `O=c1[nH]c2cc3ccccc3cc2nc1C(F)(F)F` has a fold increase of 3.44. Work on `O=C1c2cccc3c([N+](=O)[O-])ccc(c23)C(=O)N1c1nccs1` yielded a fold increase of 2.49. In the case of `FC(F)(F)c1ccc2c(c1)C1C=CCC1C(c1ccncc1)N2` (stereo not drawn), the fold increase is reported as 1.39 and the viability is reported as 94%. Molecule `Cc1ccc(CNC(=O)C2CCCN(Cc3cnn(-c4ccccc4)c3-n3cccc3)C2)cc1` (stereo not drawn) has a fold increase of 1.37 and a viability of 90.9%. `Cc1ccc(NC(=S)NCc2ccc3c(c2)OCO3)c(C)c1` showed a fold increase of 1.33. In the case of `CC(C)COc1ccc2[nH]c3c(c2c1)CCCC3=O`, the fold increase is reported as 1.11. Molecule `O=C(N/N=C/c1c(O)ccc2ccccc12)c1cccc(C(F)(F)F)c1` has a fold increase of 8.07. Molecule `COc1cccc(/C=N/NC(=O)c2ccc(=O)[nH]n2)c1O` has a fold increase of 1.35 and a viability of 96.3%. `Cc1nc([N+](=O)[O-])cn1CC(O)c1ccc(Cl)cc1` (stereo not drawn) gave a fold increase of 1.84 and a viability of 102%. For `Cc1cccc(N=C2NC(=O)S/C2=C\c2ccco2)c1`, the fold increase was 1.6 and the viability was 83.1%. In the case of `CNC(=O)CN(C)S(=O)(=O)c1ccc(F)cc1`, the fold increase is reported as 1.53 and the viability is reported as 98.4%. With `COc1cc(C(=O)Oc2ccccc2/C=N/NC(=O)c2ccc(Cl)cc2Cl)cc(OC)c1OC` the fold increase was 1.21. Molecule `COc1ccc(-n2c(O)c(/C=N/NS(=O)(=O)c3cccc([N+](=O)[O-])c3)c3ccccc3c2=O)cc1OC` has a fold increase of 1.33. Work on `CCOC(=O)c1[nH]c(CSc2nnnn2-c2ccccc2C)c(C(=O)OCC)c1C` yielded a fold increase of 1.15. Molecule `Cc1c(-n2cc(C(=O)c3cc(Cl)ccc3O)cc(C#N)c2=O)c(=O)n(-c2ccccc2)n1C` has a fold increase of 1.34 and a viability of 93.7%. For `Cc1ccc(/C=C2\CCC3=C2OC(N)=C(C#N)C3c2ccc(C)cc2)cc1` (stereo not drawn), the fold increase was 1.53 and the viability was 90.2%. `NC(=O)c1c(NC(=O)CSc2nnc(-c3ccco3)n2N)sc2c1CCCC2` showed a fold increase of 1.35 and a viability of 99.1%. In the case of `CCN1C(=O)/C(=C/C=C2/Sc3ccc4ccccc4c3N2CCO)SC1=S`, the fold increase is reported as 2.33 and the viability is reported as 73.2%. Molecule `CCOC(=O)c1sc(-n2[nH]c(C)cc2=O)nc1C` has a fold increase of 1.18. With `COc1cccc(NC2=Nc3cccc4cccc2c34)c1` the fold increase was 1.43 and the viability was 83%. With `COc1cc(C=C(c2nc3ccccc3s2)c2nc3ccccc3s2)cc(OC)c1O` the fold increase was 1.95 and the viability was 91.7%. In the case of `CC(C)NC(=O)c1ccccc1NC(=O)c1ccccc1N(C)S(C)(=O)=O`, the fold increase is reported as 1.35 and the viability is reported as 99.2%. With `COc1cc(-c2cc(=O)c3c(O)cc(O)cc3o2)ccc1O` the fold increase was 1.45 and the viability was 88.6%. Molecule `O=C(/C=C/c1ccncc1)c1cc(Cl)ccc1O` has a fold increase of 1.37 and a viability of 98.9%. `N#Cc1c(CSCC(=O)O)cc(=O)n2c1[nH]c1ccccc12` gave a fold increase of 1.38 and a viability of 101%. Molecule `O=c1oc2cc(O)ccc2cc1-c1nc2c(s1)CCc1ccccc1-2` has a fold increase of 7.61 and a viability of 88.8%. `CCCCC1OC2(C)OC(=N)C1(C#N)C(C#N)(C#N)C2c1ccccc1` (stereo not drawn) gave a fold increase of 1.93 and a viability of 87.7%. Work on `O=[N+]([O-])c1ccc(N2N=C(c3ccco3)CC2c2ccccc2)cc1` (stereo not drawn) yielded a fold increase of 1.49 and a viability of 94.5%. In the case of `CN(C)S(=O)(=O)c1cccc(C(=O)NCc2ccco2)c1`, the fold increase is reported as 1.38 and the viability is reported as 100%. Molecule `CCOC(=O)C1=C(N)Oc2c(oc(CO)cc2=O)C1c1ccc(Cl)cc1` (stereo not drawn) has a fold increase of 1.69 and a viability of 90.3%. Molecule `Cc1cc(NCc2ccc3c(c2)OCO3)n2nc(C)nc2n1` has a fold increase of 1.41 and a viability of 93.5%. Molecule `Cc1cc2cc(C(c3nnnn3Cc3ccco3)N3CCc4ccccc43)c(=O)[nH]c2cc1C` (stereo not drawn) has a fold increase of 1.46 and a viability of 95.3%. For `O=C1OC(C(=O)NCc2ccccc2)Cc2ccccc21` (stereo not drawn), the fold increase was 1.4 and the viability was 104%. `O=C(CC1C(=O)NCCN1C/C=C/c1ccccc1)NCCc1cccnc1` (stereo not drawn) showed a fold increase of 1.4 and a viability of 97.9%. With `COc1ccc(N=C(C)c2sc3ccccc3c2O)cc1` the fold increase was 2.04 and the viability was 97.4%. Molecule `CCCCCn1nc(-c2ccccc2)c2nc3ccccc3nc21` has a fold increase of 1.35 and a viability of 101%. In the case of `COc1cc(/C=C/c2ccc3c(Br)cc(Br)c(O)c3n2)ccc1O`, the fold increase is reported as 1.95. `CC(C)(C)C(=O)c1sc2nc(-c3cccs3)cc(C(F)(F)F)c2c1N` showed a fold increase of 1.52 and a viability of 101%. Molecule `Cc1ccc(CNc2ccc3c(c2)OCO3)cc1` has a fold increase of 1.33. `COc1ccc(-n2c(Cn3c(=O)sc4ccccc43)nnc2SC)cc1` showed a fold increase of 1.39 and a viability of 93.5%. Work on `Cc1ccc2nc(/C(C#N)=C/c3ccc(-c4cccc([N+](=O)[O-])c4)o3)[nH]c2c1` yielded a fold increase of 2.19. `Cc1ccc(-c2nnn(CC(=O)N(Cc3cccs3)C(C(=O)NC3CCCCC3)c3ccco3)n2)o1` (stereo not drawn) gave a fold increase of 1.06. Molecule `Cc1ccc(C(=O)NCC(=O)OCC(=O)c2cc(C)n(Cc3ccco3)c2C)cc1` has a fold increase of 1.37 and a viability of 95.7%. With `O=C(CN1CCCc2ccccc21)NCc1ccccc1Cl` the fold increase was 1.32. With `COc1cc(/C=C2/CCC/C(=C\c3cc(O)c(OC)c(Cl)c3)C2=O)cc(Cl)c1O` the fold increase was 1.42 and the viability was 21%. With `C=CCN1C=CC(=CC=C(C#N)C#N)C=C1` the fold increase was 2.37 and the viability was 91.2%. `COc1ccc(C2C(C#N)=C(N)N3C(=C2C#N)Sc2ccccc23)cc1` (stereo not drawn) showed a fold increase of 1.54. For `O=C1CC(NNC(=O)c2ccccc2)C(=O)N1` (stereo not drawn), the fold increase was 1.33 and the viability was 98.4%. For `CCCS(=O)(=O)N1CCN(Cc2ccncc2)CC1`, the fold increase was 1.35 and the viability was 97.4%. For `CN1CCS/C1=C/C=C1\SC(=S)N(CC(=O)O)C1=O`, the fold increase was 2.26. In the case of `COc1cc(/C=C(\C#N)C(=O)c2c[nH]c3ccccc23)cc(OC)c1O`, the fold increase is reported as 7.38. With `O=C(O)c1ccc(S(=O)(=O)c2ccc(Sc3ccc(C(=O)O)c(C(=O)O)c3)cc2)cc1` the fold increase was 1.6 and the viability was 105%. `COc1ccccc1C1CC(c2ccco2)=NN1c1ccccc1` (stereo not drawn) gave a fold increase of 1.51 and a viability of 94.2%. For `Cc1ccc(C(=O)O)cc1N=Cc1cc(Br)cc(Br)c1O`, the fold increase was 1.54 and the viability was 103%. Molecule `N#Cc1c(N)n(-c2cccc(C(=O)O)c2)c2nc3ccccc3nc12` has a fold increase of 1.71 and a viability of 93.3%. For `CCS(=O)(=O)c1nn2c(N)c(/C=C3/C=CC(=O)C(OC)=C3)c(=O)nc2s1`, the fold increase was 4.28 and the viability was 94.6%. `COc1ccc(Oc2nc(C(F)(F)F)nc3ccccc23)cc1` gave a fold increase of 1.37 and a viability of 103%. In the case of `NC1=NC(=O)/C(=C/c2cn(Cc3ccccc3)c3ccccc23)S1`, the fold increase is reported as 1.33 and the viability is reported as 85.7%. In the case of `CCN1C(=O)/C(=C/C=C2/SCCN2C)SC1=S`, the fold increase is reported as 2.36 and the viability is reported as 99.7%. For `CCOc1cc(C2C(C(=O)c3ccc(C)cc3)=C(C(=O)OC)Nc3nnnn32)ccc1O` (stereo not drawn), the fold increase was 1.39 and the viability was 93.4%. With `Cc1nonc1CN(C)C(=O)CC1C(=O)NCCN1Cc1c(F)cccc1Cl` (stereo not drawn) the fold increase was 1.32. Work on `CC(=O)c1sc(N/N=C\c2ccc(C)cc2)nc1C` yielded a fold increase of 1.34. `CCCCN(C)C(=O)c1nc2ccccn2c1CN1CCC[C@H]1C(=O)OC` gave a fold increase of 1.6 and a viability of 90.1%. Work on `C=C(C)CSc1nnc(-c2cccc(Cl)c2)n1N` yielded a fold increase of 1.46 and a viability of 89.9%. `CC1=NNC(=O)c2ccccc2O1` gave a fold increase of 1.34 and a viability of 102%. `CCN(CC)C(=O)CSc1nnc2nnc3cc(C)ccc3n12` gave a fold increase of 2.07 and a viability of 93.9%. Work on `COC1=C/C(=C/c2c(N)n3nc(-c4ccc(C)cc4)sc3nc2=O)C=CC1=O` yielded a fold increase of 1.89 and a viability of 96.8%. Work on `Cc1cccc(-n2nc(CC#N)c(C#N)c2N)c1` yielded a fold increase of 1.41 and a viability of 98.1%. Work on `CC(=O)c1ccc(N=c2scc(C)n2C(C)C)cc1` yielded a fold increase of 1.33 and a viability of 98.9%. `Cc1ccsc1C1C=C(c2cccc(Br)c2)Nc2ncnn21` (stereo not drawn) gave a fold increase of 1.55. `Cc1ccc(N2C(=O)c3cccc4c(Oc5ccccc5[N+](=O)[O-])ccc(c34)C2=O)c(C)c1` gave a fold increase of 3.72. Molecule `COc1cc(/C=C2\SC(=S)N(NC(=O)c3cccnc3)C2=O)ccc1O` has a fold increase of 6.5 and a viability of 95%. Molecule `Cc1csc(NC(=O)CSc2nnc(-c3ccccn3)n2-c2ccc(C)c(C)c2)n1` has a fold increase of 1.17. Molecule `C/C(=N/NC(N)=S)c1cc2ccc(O)cc2oc1=O` has a fold increase of 3.06 and a viability of 98.7%. Molecule `N#Cc1cc(C(=O)c2ccccc2O)cn(-c2ccc(Cl)cc2)c1=O` has a fold increase of 2 and a viability of 94.2%.
